Results on 22 compounds are retold here after ChEMBL document CHEMBL4888484, “Replenishing the malaria drug discovery pipeline: Screening and hit evaluation of the MMV Hit Generation Library 1 (HGL1) against asexual blood stage Plasmodium falciparum ,using a nano luciferase reporter read-out” (2022).

Hit rate of the full screen: of about 150,000 compounds, about 540 (0.36%) showed an effect of 50% or more. The list shows a part of the results.

This experiment has as its system Plasmodium falciparum. Nature of the experiment: Primary screen in NF54 nanoGlo assay, in single point, at 2uM, 72h; a lower Z score goes with more inhibition. The format is functional, Erythrocyte. As to conditions: timepoint 72 hour.
As to `O=C(N[C@H]1CCCN(Cc2nc3c(s2)CCCC3)CC1)c1ccncc1`, the % Inhibition – broadly, the change of the read-out against control, counted positive when it falls – is -6% and the Z score turned out to be 1.27.

`COc1cccc2c(=O)c3c([nH]c12)CCN(CC(=O)NCc1ccccc1Cl)C3`: the “% Inhibition” value came to 33% and the Z score is on record as -4.27.

On to `COc1ccnc(Cn2ncc(N(C)C)cc2=O)c1`, for which the “% Inhibition” value is listed as -9% and the Z score is 1.

`Nc1[nH]nc(C(=O)N[C@H]2CCOC3(CCOCC3)C2)c1-c1ccccc1`: the “% Inhibition” value is listed as -8% and the Z score was determined as 1.47.

Turning to `CC[C@@H](C1=CCCN(Cc2ccccc2C#N)C1)N(C)C(C)=O`, the “% Inhibition” value is 4% and the Z score is reported as -0.52.

For `c1ccc2c(c1)OCc1cnc(N3CCC4(CC3)OCCO4)nc1-2`, the “% Inhibition” value was determined as 4% and the Z score is -0.77.

For the compound `N#Cc1ccc(Cn2ccc(=O)c3sccc32)c(F)c1`, the “% Inhibition” value was -9% and the Z score stood at 1.14.

With `COc1ccc2[nH]c(CN3CCN(Cc4cccc(C)n4)[C@@H](CCO)C3)c(C)c2c1`, the “% Inhibition” value came to 9% and the Z score is -1.33.

Consider `C/C(=C\c1nsc(Nc2ccccc2)n1)NCc1ccc(Cl)cc1`, for which the “% Inhibition” value was -6% and the Z score came to 0.85.

Consider `CCC(C)C(NC(=O)COc1ccc(Cl)cc1)c1nc(-c2ccc3c(c2)OCO3)no1` (centres undefined), for which the “% Inhibition” value is listed as -1% and the Z score was determined as 0.15.

Regarding `Cc1cc(NC(=O)[C@@H]2C[C@@H]3OCC[C@@H]3N2)nn1CCCOc1ccc(F)cc1`, the “% Inhibition” value is -2% and the Z score stood at 0.29.

Regarding `CC[C@H](C)N(CCC(=O)Nc1nnc(-c2cccc(OC)c2)s1)C(=O)c1cc(C(F)(F)F)cc(C(F)(F)F)c1`, the “% Inhibition” value was -9% and the Z score came to 1.02.

For the compound `CC(C)N(Cc1ccccc1)C(=O)C1=CCN(S(=O)(=O)c2ccccc2)CC1`, the “% Inhibition” value stood at 1% and the Z score is -0.11.

Turning to `COc1ccccc1C(=O)n1nc(NCc2cccc3ccccc23)nc1NCc1cccc2ccccc12`, the “% Inhibition” value is -5% and the Z score is on record as 0.76.

`O=C(COc1ccccc1)N1CCC[C@H](CN2CCOCC2)CC1`: the “% Inhibition” value amounted to 3% and the Z score was -0.4.

For `O=C(NCc1cc(F)ccc1C(F)(F)F)[C@@H]1CCCN1C1CCNCC1`, the “% Inhibition” value is listed as -8% and the Z score is 1.66.

As for `CC(C(=O)N1CCc2ccccc21)N1CCOC(Cn2cccn2)C1` (centres undefined), the “% Inhibition” value was -11% and the Z score turned out to be 1.83.

`Cc1cnn(-c2cccc(N3CCC[C@H](O)CC3)n2)c1`: the “% Inhibition” value was 0% and the Z score is -0.01.

Regarding `Cc1oc(-c2cccc(F)c2F)nc1CN1CCC[C@H]1c1nc2cc(F)ccc2[nH]1`, the “% Inhibition” value was 11% and the Z score is reported as -1.49.

`CCCCN1CCN([C@@H](C(=O)N2CCCNCC2)c2ccccc2)C(=O)C1=O`: the “% Inhibition” value amounted to 1% and the Z score is -0.18.

For the compound `CCN1C(=O)[C@]2(CC(=O)Nc3c2cnn3C(C)(C)C)c2cccc(C)c21`, the “% Inhibition” value was 25% and the Z score was -2.83.

As for `Cc1nsc(C(=O)NCc2ccccn2)n1`, the “% Inhibition” value was -15% and the Z score turned out to be 2.37.
